PMC11180146, “Human gut microbes express functionally distinct endoglycosidases to metabolize the same N-glycan substrate” (Nature Communications, 2024)

T1: BT1285i_(H126A) (Bacteroides thetaiotaomicron VPI-5482)
T1 construct: Parent is m1; source: E. coli BL21(DE3), purified (Ni-NTA, SUMO protease, second Ni-NTA, SEC)
T1 chain: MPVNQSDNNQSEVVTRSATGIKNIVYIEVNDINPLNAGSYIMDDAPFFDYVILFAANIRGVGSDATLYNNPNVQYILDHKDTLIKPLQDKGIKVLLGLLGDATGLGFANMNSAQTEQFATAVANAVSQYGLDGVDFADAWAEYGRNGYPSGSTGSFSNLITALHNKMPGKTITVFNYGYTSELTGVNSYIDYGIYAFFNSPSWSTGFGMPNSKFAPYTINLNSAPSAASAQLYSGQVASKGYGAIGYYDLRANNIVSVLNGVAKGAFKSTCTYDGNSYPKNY

B1: monoclonal IgG1 antibody (Rituximab)-HM, bearing Man8 and Man9 at Asn297 (antibody, V domains shown)
VH: QVQLQQPGAELVKPGASVKMSCKASGYTFTSYNMHWVKQTPGRGLEWIGAIYPGNGDTSYNQKFKGKATLTADKSSSTAYMQLSSLTSEDSAVYYCARSTYYGGDWYFNVWGAGTTVTVSA
VL: QIVLSQSPAILSASPGEKVTMTCRASSSVSYIHWFQQKPGSSPKPWIYATSNLASGVPVRFSGSGSGTSYSLTISRVEAEDAATYYCQQWTSNPPTFGGGTKLEIK
notes: variable domain of the heavy chain of Rituximab; constant region of the IgG1 heavy chain of Rituximab; light chain of Rituximab; IgG1; also called IgG-HM; IgG1-HM; source: Expi293 cells and/or HEK cells, transfected, with kifunensine; purified (protein A); copies: 2 + 2
B2: IgG1 (Rituximab) Man5/Man5 (antibody, V domains shown)
VH: B1 VH
VL: B1 VL
notes: variable domain of the heavy chain of Rituximab, as in m5; constant region of the IgG1 heavy chain of Rituximab; light chain of Rituximab, as the light chain of m5; IgG1; same chains as m5, other glycoform; also called IgG-Man5; IgG-Man5/Man5; source: IgG-Man9 (Expi293 and/or HEK cells, kifunensine, protein A) incubated with α(1-2)-mannosidase (Aspergillus saitoi); copies: 2 + 2

Legend:
[1] = target: RNAseB, glycosylated (HM N-glycan at N34, mainly Man5 and Man6) (beef (bovine), as said of the protein in general) (UniProt P61823); assay: SPR; glycosylated RNAseB (Man5/6) amine-coupled to a CM5 chip on flow cell 2 (150 RU), deglycosylated RNAseB on control flow cell 1; enzyme as analyte, 120 s injection, 600 s dissociation; HBS-EP running buffer; Biacore X100
BT1285i_(H126A) = target: T1, BT1285i_(H126A); assay: SPR; IgG1 glycoforms captured on a Protein A sensor chip (flow cell 2, up to 400 RU, 15 nM IgG1); serial dilutions of the enzyme as analyte; HBS-EP running buffer (10 mM HEPES, 150 mM NaCl, 0.005 % Tween 20, 3 mM EDTA); Biacore X100; conditions: both partners purified

Row | Molecule | fold lower affinity than BT1285i [1] [fold] | fold lower affinity than BT1285i (BT1285i_(H126A)) [fold]
1 | BT1285i_(H126A) (enzyme) | 1000 | –
2 | B1 | – | 1000
3 | B2 | – | 1000
